Test systems include HL-60(TB) leukemia; 786-0 renal; A498 renal; A549 NSCLC; ACHN renal; DU-145 prostate; EKVX NSCLC; HOP-62 NSCLC; OVCAR-3 ovarian; OVCAR-5 ovarian; OVCAR-8 ovarian; SF-268 CNS; SF-539 CNS; SK-MEL-5 melanoma; MALME-3M melanoma; SK-MEL-2 melanoma.
Common to all, as to assay: NCI anticancer screen, dose series, 48 h

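Dose response: 5 concentrations. Exposure: 48 h. Format: 96-well plates. Endpoint: linear interpolation; highest concentration if not reached. Abbreviation: GI50, concentration required for 50% inhibition of growth.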 A number of entries come with more than one value. This is not the full list of results. The source may hold further records. For some of these results: A record mostly stands for its own series of concentrations, not given here; some values may only mark the edge of a range.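 TGI denotes the concentration required for complete inhibition of growth.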 For some of these results: The records of an entry are repeats in other runs, samples, wells, individuals or studies. Records carry a tag for their origin. Letters hold for one entry only. A value given as a limit tells only on which side of the number the result lay.

For `CCCCCN(CCCCC)CC(O)c1cc2c(c3ccccc13)CCCC2` (stereo unspecified), in the assay with HL-60(TB) leukemia, the TGI is 8.51 µM [sample A, 1 test] and > 100 µM [sample B, 1 test].

With `COC(=O)[C@@H](C)C[C@H](Cc1ccccc1)NC(=O)c1csc([C@@H](C[C@H](C(C)C)N(C)C(=O)C2(NC(=O)[C@H]3CCCCN3C)CC2)OC(C)=O)n1`, the GI50 was 69.8 nM and 3.33 nM in the assay with 786-0 renal; 72.2 nM and 3.33 nM in the assay with A549 NSCLC; 44.5 nM and 3.33 nM in the assay on ACHN renal; 144 nM and 5.23 µM in the assay with EKVX NSCLC; 34 nM and 3.33 nM with HOP-62 NSCLC; 52 nM and 3.33 nM in the assay on OVCAR-5 ovarian. Also, the GI50 in the assay on OVCAR-8 ovarian is 36.1 nM and 3.33 nM; in the assay with SF-268 CNS, 43.9 nM and 3.33 nM. For the same molecule, the TGI with A498 renal is 64.3 nM and < 3.33 nM; with DU-145 prostate it was 222 nM and > 33.3 µM; in the assay on OVCAR-3 ovarian, 8.1 nM and > 33.3 µM; in the assay on SF-539 CNS it was 45 nM and < 3.33 nM; in the assay on SK-MEL-5 melanoma it was 789 nM and 13.6 nM.

As to `Cc1ccc(S(=O)(=O)Nc2nc3ccccc3nc2Nc2ccc3nsnc3c2)cc1`, the TGI is > 100 µM [sample A, 1 test] and 5.02 µM [sample B, 1 test] with MALME-3M melanoma; 8.98 µM [sample A, 1 test] and > 100 µM [sample B, 1 test] in the assay on SK-MEL-2 melanoma.

The values are drawn from PubChem BioAssay (NCI).
